Test results reported in US20240376196A1 (HEFEI TG IMMUNOPHARMA, published 2024).

Legend:
[1] = molecular target: T1, CD112 on tumor cells (A-375, A-549, MDA-MB-231) (UniProt Q92692 32-538, limits assumed); assay: flow cytometry on A-375 cells, Alexa-647 anti-human IgG, % Binding ratio
T1 construct: whole, on cells
T1 sequence (looked up): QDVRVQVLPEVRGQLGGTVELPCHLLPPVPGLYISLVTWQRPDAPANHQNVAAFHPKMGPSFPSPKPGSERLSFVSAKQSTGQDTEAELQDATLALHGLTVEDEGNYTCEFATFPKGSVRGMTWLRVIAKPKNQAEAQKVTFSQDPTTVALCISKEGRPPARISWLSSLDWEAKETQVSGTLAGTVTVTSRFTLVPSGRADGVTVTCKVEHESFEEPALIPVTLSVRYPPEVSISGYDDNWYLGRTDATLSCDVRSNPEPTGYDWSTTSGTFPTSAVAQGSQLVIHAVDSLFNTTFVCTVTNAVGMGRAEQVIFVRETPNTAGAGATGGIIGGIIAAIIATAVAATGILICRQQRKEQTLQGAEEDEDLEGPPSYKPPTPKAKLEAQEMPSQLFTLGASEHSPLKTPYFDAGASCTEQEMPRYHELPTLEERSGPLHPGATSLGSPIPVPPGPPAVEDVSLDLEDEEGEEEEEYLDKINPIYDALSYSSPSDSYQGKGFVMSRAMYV

[2] = molecular target: T1, CD112 on tumor cells (A-375, A-549, …); assay: flow cytometry on MDA-MB-231 cells, Alexa-647 anti-human IgG, MFI
[3] = molecular target: T1, CD112 on tumor cells (A-375, A-549, …); assay: flow cytometry on A-375 cells, Alexa-647 anti-human IgG, MFI
[4] = molecular target: T1, CD112 on tumor cells (A-375, A-549, …); assay: flow cytometry on MDA-MB-231 cells, Alexa-647 anti-human IgG, % Binding ratio
[5] = molecular target: T2, CD112 (antigen of the Biacore assay) (UniProt Q92692 32-360, limits assumed); assay: Biacore 8K SPR, antibody captured on protein A chip, antigen as analyte
T2 construct: also called CD112 protein; the antigen
T2 sequence (looked up): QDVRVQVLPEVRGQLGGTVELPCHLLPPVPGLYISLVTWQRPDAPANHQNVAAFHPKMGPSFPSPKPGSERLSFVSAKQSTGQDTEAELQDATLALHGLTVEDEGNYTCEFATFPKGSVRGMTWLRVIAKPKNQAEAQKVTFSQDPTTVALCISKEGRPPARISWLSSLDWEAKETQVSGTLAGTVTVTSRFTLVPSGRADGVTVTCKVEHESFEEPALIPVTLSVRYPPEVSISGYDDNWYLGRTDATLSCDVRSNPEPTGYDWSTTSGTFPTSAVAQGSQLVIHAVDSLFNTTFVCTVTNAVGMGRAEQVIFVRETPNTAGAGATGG

EC50 (read off the curve) [1]: ~0.02 µg/mL
EC50 (read off the curve) [2]: ~0.2 µg/mL
EC50 (read off the curve) [3]: ~0.2 µg/mL
EC50 (read off the curve) [4]: ~0.01 µg/mL
Kd [5]: 51.4 nM
B1: humanized antibody h9G11-hIgG1 (antibody)
heavy: EVQLVESGGGLVQPGGSLRLSCAASGFTFSSYYMSWVRQAPGKRLELVAAINSQGGSTYYPDTVKGRFTISRDNAKNTLYLQMNSLRAEDTAVYYCARSDYDWAWFAYWGQGTLVTVSS[omitted - human IgG1 constant region]
light: DIVMTQSPSSLAVSLGERATINCKSSQSLLYSSNQKNYLAWYQQKPGQPPKLLIYWASTRESGVPDRFSGSGSGTDFTLTISSLQAEDVAVYYCQQYYRYPPTFGGGTKLEIKRTVAAPSVFIFPPSDEQLKSGTASVVCLLNNFYPREAKVQWKVDNALQSGNSQESVTEQDSKDSTYSLSSTLTLSKADYEKHKVYACEVTHQGLSSPVTKSFNRGEC
notes: also called parental antibody h9G11; parent humanized antibody h9G11
